Results: patent US10017542B2, “Antimicrobial peptides and methods of use thereof” (priority 2015, dated 2018)
Where a SMILES comes first, the peptide text is derived from it. Where no end group is shown, it is not given here. [ ]: non-standard residue; d: D form. Orn = NCCC[C@H](N)C(=O)O

System: eight challenge organisms: Enterococcus faecium ATCC 700221; Enterobacter aerogens ATCC 13048; Staphylococcus aureus MRSA ATCC 33591; Streptococcus pneumoniae …
Details: MBC = concentration for 99.9% lethality; average across all eight bacteria tested
Protocol: Sample dilutions ranged from initial sample to 1:2048. Eleven (11) concentrations were tested in duplicate on a 96 well plate by MQA Laboratories. Results are shown in Table 4 as Minimum bactericidal concentration (MBC), which is the concentration of each peptide necessary to yield 99.9% lethality for each of the eight challenge organisms. (The concentrations in Table 4 are averages of the MBC across all bacteria tested in μM).

Molecule | Average MBC [µM]
C[C@H](NC(=O)[C@H](Cc1ccccc1)NC(=O)[C@H](C)NC(=O)[C@@H](N)Cc1ccccc1)C(=O)N[C@@H](Cc1ccccc1)C(=O)N[C@@H](CCCN)C(=O)N[C@@H](C)C(=O)N[C@@H](Cc1ccccc1)C(=O)N[C@@H](CCCN)C(=O)N[C@@H](CCCN)C(=O)N[C@@H](C)C(=O)N[C@@H](Cc1ccccc1)C(=O)N[C@@H](CCCN)C(=O)N[C@@H](CCCN)C(=O)N[C@@H](Cc1ccccc1)C(=O)N[C@@H](CCCN)C(=O)N[C@@H](CCCN)C(=O)N[C@@H](C)C(=O)N[C@@H](Cc1ccccc1)C(=O)N[C@@H](CCCN)C(=O)N[C@@H](CCCN)C(=O)N[C@@H](C)C(=O)N[C@@H](Cc1ccccc1)C(=O)O [RP443, FAFAFOAFOOAFOOFOOAFOOAF] (H-FAFAF[Orn]AF[Orn][Orn]AF[Orn][Orn]F[Orn][Orn]AF[Orn][Orn]AF-OH; N-terminus and C-terminus assumed) | 11.3
C[C@H](NC(=O)[C@H](Cc1ccccc1)NC(=O)[C@H](C)NC(=O)[C@H](Cc1ccccc1)NC(=O)[C@H](CCCN)NC(=O)[C@H](C)NC(=O)[C@H](Cc1ccccc1)NC(=O)[C@H](CCCN)NC(=O)[C@H](CCCN)NC(=O)[C@H](C)NC(=O)[C@H](Cc1ccccc1)NC(=O)[C@H](CCCN)NC(=O)[C@H](CCCN)NC(=O)[C@H](Cc1ccccc1)NC(=O)[C@H](CCCN)NC(=O)[C@H](CCCN)NC(=O)[C@H](C)NC(=O)[C@H](Cc1ccccc1)NC(=O)[C@H](CCCN)NC(=O)[C@H](CCCN)NC(=O)[C@H](C)NC(=O)[C@@H](N)Cc1ccccc1)C(=O)N[C@@H](Cc1ccccc1)C(=O)O [RP444, FAOOFAOOFOOFAOOFAOFAFAF] (H-FA[Orn][Orn]FA[Orn][Orn]F[Orn][Orn]FA[Orn][Orn]FA[Orn]FAFAF-OH; N-terminus and C-terminus assumed) | 7.5
CPGFAKKFAKKFKKFAKKFAKFAFAF [RP438] | 5.3
FAFAFAFKKAFKKFKKAFKKAF [RP442] | 15.2
FAFAFKAFKKAFKKFKKAFKKAFGPC [RP441] | 8.8
FAKKFAKKFKKFAKKFAFAFAF [RP445] | 10.4
KKKPKPPYLPKPKPPPFFPPKLPPKI [RP440] | 18
MGFKLRAKIKVRLRAKIKL [RP435, MGFKLRAKIKVRLRAKIKL] | 19.6
